Experimental data published in the supplement of paper PMC4723716.
± gives the uncertainty stated by the source. Over roughly 9,900 compounds, “viability index relative to DMSO control” has its median near 1; the lowest 2% begin near 0.85. The list shows a part of the results.

The molecules below were run on Plasmodium falciparum NF54 stage V gametocytes (assay: viability index relative to DMSO control (fraction); higher = less gametocyte killing). Settings: 2.5 µM, library set: Broad Institute DOS, incubation time: 72 h.
Method in brief: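 Gametocytes (P. falciparum NF54, stage V) were treated with compound at 2.5 µM for 72 hr at 37°C in low oxygen, in serum-free medium at 0.75% gametocytemia and 1.25% hematocrit. Counts of 20–70 µm2 red particles, taken from one field per well after MitoTracker Red CMXRos with saponin, were divided by the plate mean of solvent-only wells. This ratio is the viability index.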
With `CCS(=O)(=O)NCC[C@H]1CC[C@H](NS(=O)(=O)c2ccccc2C)[C@@H](CO)O1` the viability index was 0.916 ± 0.053. `O=C(C[C@@H]1CC[C@H]2NC[C@H](O)COC[C@@H]2O1)NCCc1ccncc1` was tested, and the viability index was 0.983 ± 0.1. `COc1ccc2c3c([nH]c2c1)[C@H](CO)N(C[C@]31CCN(CC2CCCCC2)CC1)S(=O)(=O)c1cn(C)cn1` was tested, and the viability index was 1.062 ± 0.009. With `COc1ccccc1S(=O)(=O)N[C@H]1C=C[C@@H](CC(=O)N2CCOCC2)O[C@@H]1CO` the viability index was 1.1 ± 0.033. `Cc1ccc(S(=O)(=O)Nc2ccc3c(c2)C(=O)N(C)[C@H]2CC[C@H](CC(=O)NCCc4ccncc4)O[C@@H]2CO3)cc1` was tested, and the viability index was 0.987 ± 0.017. In the case of `C[C@@H]1CN([C@H](C)CO)C(=O)c2cccc(NS(=O)(=O)c3ccc(F)cc3)c2O[C@H]1CN(C)Cc1ccc(Cl)c(Cl)c1`, the viability index is reported as 0.967 ± 0.045. For `CO[C@@H]1CC[C@@H]2CCOc3c(C#N)cccc3C(=O)N(C)C[C@H](c3ccccc3)CC(=O)N(C)C[C@@H]1O2`, the viability index was 1.046 ± 0.0064. Work on `COc1ccc2c3c([nH]c2c1)[C@H](CO)N(C[C@]31CCN(CC1)S(C)(=O)=O)C(=O)C1CCOCC1` yielded a viability index of 1 ± 0.13. Work on `COc1ccccc1NC(=O)N1C[C@@H](C)[C@H](OC)CN(C)C(=O)c2cc(NC(=O)c3cnccn3)ccc2OC[C@H]1C` yielded a viability index of 1.003 ± 0.0039. `C[C@@H]1CN([C@H](C)CO)C(=O)CCCn2cc(nn2)CO[C@H]1CN(C)Cc1ccccc1` was tested, and the viability index was 1.04 ± 0.033. With `CCC(=O)N(C)C[C@H]1[C@@H](c2ccc(-c3cccc(F)c3)cc2)[C@@H](CO)N1C(C)=O` the viability index was 0.968 ± 0.02. `C[C@@H]1CCCCO[C@@H](CN(C)C(=O)Nc2ccc(C(F)(F)F)cc2)[C@@H](C)CN([C@H](C)CO)C(=O)c2cc(NS(=O)(=O)c3cn(C)cn3)ccc2O1` showed a viability index of 1.03 ± 0.17. `COCC(=O)N(C[C@H]1N[C@H](CO)[C@@H]1c1ccc(C2=CCCC2)cc1)C1CCCC1` showed a viability index of 0.924 ± 0.07. With `C[C@H]1CN([C@@H](C)CO)C(=O)c2ccccc2-c2ccccc2CO[C@H]1CN(C)C(=O)[C@H](Cc1ccccc1)N(C)C` the viability index was 1.03 ± 0.017. Work on `CCS(=O)(=O)Nc1ccc2c(c1)C(=O)N(C)C[C@H](OC)[C@H](C)CN(CC1CCCCC1)[C@H](C)CO2` yielded a viability index of 0.995 ± 0.1. `Cc1ccc(OC(=O)N(C)C[C@H]2OCc3ccccc3-c3ccccc3C(=O)N([C@H](C)CO)C[C@@H]2C)cc1` was tested, and the viability index was 0.961 ± 0.063. Molecule `O=C(C[C@H]1CC[C@H](NC(=O)Nc2ccc(C(F)(F)F)cc2)[C@H](CO)O1)NCc1cccc(F)c1` has a viability index of 0.937 ± 0.033. `O=C(NCC1CC1)[C@H]1[C@H](CO)[C@H]2Cn3c(ccc(-c4ccccc4F)c3=O)[C@@H]1N2Cc1cncnc1` gave a viability index of 1.02 ± 0.038. `O=C(C[C@@H]1CC[C@@H]2[C@H](COC[C@H](O)CN2Cc2nccs2)O1)N1CCC(Cc2ccccc2)CC1` showed a viability index of 1.04 ± 0.11. Work on `CO[C@@H](CN(C)Cc1cc(F)ccc1F)[C@H](C)CN(C(=O)Nc1ccc(C(F)(F)F)cc1)[C@H](C)CO` yielded a viability index of 1.14 ± 0.029. Molecule `CN(C)C(=O)C[C@H]1CC[C@H]2[C@@H](COc3ccc(NC(=O)C4CCCCC4)cc3C(=O)N2C)O1` has a viability index of 1.05 ± 0.074. `CCCNC(=O)N1[C@H](C#N)[C@H](c2ccc(-c3ccccc3F)cc2)[C@@H]1CO` showed a viability index of 0.911 ± 0.019. In the case of `CN(C)CC(=O)N1[C@H](C#N)[C@H](c2ccc(C#CC3CCCCC3)cc2)[C@H]1CO`, the viability index is reported as 1 ± 0.026. `CCS(=O)(=O)N1C[C@@]2(C1)CN(Cc1cccc(Cl)c1)[C@H](CO)c1c2c2ccc(OC)cc2n1C` was tested, and the viability index was 0.907 ± 0.086. Molecule `Cc1ccc(S(=O)(=O)Nc2cccc3c2O[C@@H](CN(C)C(=O)Nc2ccc(C(F)(F)F)cc2)[C@H](C)CN([C@H](C)CO)C3=O)cc1` has a viability index of 1.08 ± 0.082. With `O=C(CC1CC1)N1CC2(C1)[C@H](c1ccccc1)[C@H](CO)N2S(=O)(=O)Cc1ccccc1` the viability index was 1.1 ± 0.012. With `CNC[C@H]1OCCCC[C@H](C)Oc2ccc(NS(=O)(=O)c3ccc(F)cc3)cc2C(=O)N([C@@H](C)CO)C[C@@H]1C` the viability index was 1.08 ± 0.072. In the case of `C[C@H]1CN([C@@H](C)CO)C(=O)CCCn2nncc2CO[C@H]1CN(C)S(=O)(=O)c1ccccc1C#N`, the viability index is reported as 1.11 ± 0.088. `Cc1ccccc1S(=O)(=O)N1CCCCN2[C@@H](CO)[C@H](c3ccc(C#CCN(C)C)cc3)[C@@H]2C1` gave a viability index of 1.02 ± 0.023. In the case of `CCCC#Cc1ccc([C@@H]2[C@@H](CO)N3C(=O)CN(C(=O)Nc4cccc(F)c4)C[C@@H]23)cc1`, the viability index is reported as 1.06 ± 0.013. Molecule `COCC(=O)Nc1ccc2c(c1)[C@H]1C[C@H](CC(=O)N[C@@H](C)c3ccccc3)O[C@@H](CO)[C@H]1O2` has a viability index of 1.038 ± 0.0089. In the case of `CN(C)C(=O)c1ccc(-c2ccccc2[C@@H]2[C@H](C#N)N(C(=O)C3CC3)[C@H]2CO)cc1`, the viability index is reported as 1.07 ± 0.041. `N#C[C@@H]1N[C@@H](CO)[C@H]1c1ccc(C#Cc2ccccc2F)cc1` gave a viability index of 1.09 ± 0.023. `CCCNC(=O)Nc1ccc2c(c1)OC[C@H](C)N(C(=O)C1CCOCC1)C[C@@H](C)[C@H](OC)CN(C)C2=O` was tested, and the viability index was 0.9626 ± 0.0033. Work on `C[C@H]1CN([C@@H](C)CO)C(=O)CCCn2nncc2CO[C@@H]1CN(C)C(=O)c1ccc(N2CCN(C)CC2)cc1` yielded a viability index of 1.089 ± 0.0044. `COc1ccc(C#Cc2ccc([C@H]3[C@H](CO)N4C(=O)CN(C(=O)c5ccc(F)cc5)C[C@@H]34)cc2)cc1` was tested, and the viability index was 1.06 ± 0.036. For `N#C[C@@H]1[C@H](c2ccc(C3=CCCC3)cc2)[C@@H](CO)N1C(=O)c1ccccn1`, the viability index was 1.13 ± 0.065. `C[C@@H]1CCCCO[C@H](CN(C)C(=O)Nc2cccc3ccccc23)[C@@H](C)CN([C@@H](C)CO)C(=O)c2cc(NC(=O)CCC(F)(F)F)ccc2O1` showed a viability index of 0.995 ± 0.014. `C[C@@H]1CCCCO[C@@H](CN(C)C(=O)Nc2ccccc2)[C@H](C)CN([C@@H](C)CO)C(=O)c2cc(NC(=O)Nc3ccccc3)ccc2O1` showed a viability index of 1.08 ± 0.047. `Cc1ccc(S(=O)(=O)N2C[C@H](O)COC[C@H]3O[C@@H](CC(=O)N4CCc5ccccc5C4)CC[C@@H]32)cc1` showed a viability index of 1.07 ± 0.078. Molecule `CCc1cnc(N2[C@H](C#N)[C@@H](c3ccc(C#Cc4ccccc4F)cc3)[C@H]2CO)s1` has a viability index of 1.05 ± 0.12. `CN(C)CC(=O)N1CC2(C1)[C@H](c1ccccc1)[C@H](CO)N2C(=O)C1CC1` was tested, and the viability index was 1.08 ± 0.026. `O=C(CCN1CCCCC1)N[C@@H]1CC[C@@H](CC(=O)N2CCC(Cc3ccccc3)CC2)O[C@@H]1CO` gave a viability index of 0.954 ± 0.15. `O=C(C[C@H]1CC[C@H]2[C@@H](COC[C@@H](O)CN2C(=O)Cc2ccccc2)O1)NC1Cc2ccccc2C1` gave a viability index of 1.07 ± 0.057.
